Z-score data for 66 compounds are collected here from PubChem BioAssay AID488969 (Vanderbilt High Throughput Screening Facility, 2010).

Whole data set: some 110,000 compounds, median “z-score” near -0.1, cut for the highest 2% near 2. Some of the results follow. Calls of active or inactive are those of the source.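 Rule for the calls: active = z-score in the third read window above 3 or below -3; inactive = the rest.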

For this test, the target named is Metabotropic glutamate receptor 8 (Rattus norvegicus) (UniProt P70579). Put plainly: mGluR8 Gi/Go-coupled signaling modulation – cell-based, rat, thallium flux, HTS, primary screen (AID 488969). Conditions: HEK293 rat mGluR8, GIRK (G protein-gated inwardly rectifying potassium channel) thallium flux, FluoZin2; at 10 µM; stronger effect = higher value; submaximal glutamate (EC20) added with thallium.
UniProt P70579, sequence (P70579 whole entry, looked up): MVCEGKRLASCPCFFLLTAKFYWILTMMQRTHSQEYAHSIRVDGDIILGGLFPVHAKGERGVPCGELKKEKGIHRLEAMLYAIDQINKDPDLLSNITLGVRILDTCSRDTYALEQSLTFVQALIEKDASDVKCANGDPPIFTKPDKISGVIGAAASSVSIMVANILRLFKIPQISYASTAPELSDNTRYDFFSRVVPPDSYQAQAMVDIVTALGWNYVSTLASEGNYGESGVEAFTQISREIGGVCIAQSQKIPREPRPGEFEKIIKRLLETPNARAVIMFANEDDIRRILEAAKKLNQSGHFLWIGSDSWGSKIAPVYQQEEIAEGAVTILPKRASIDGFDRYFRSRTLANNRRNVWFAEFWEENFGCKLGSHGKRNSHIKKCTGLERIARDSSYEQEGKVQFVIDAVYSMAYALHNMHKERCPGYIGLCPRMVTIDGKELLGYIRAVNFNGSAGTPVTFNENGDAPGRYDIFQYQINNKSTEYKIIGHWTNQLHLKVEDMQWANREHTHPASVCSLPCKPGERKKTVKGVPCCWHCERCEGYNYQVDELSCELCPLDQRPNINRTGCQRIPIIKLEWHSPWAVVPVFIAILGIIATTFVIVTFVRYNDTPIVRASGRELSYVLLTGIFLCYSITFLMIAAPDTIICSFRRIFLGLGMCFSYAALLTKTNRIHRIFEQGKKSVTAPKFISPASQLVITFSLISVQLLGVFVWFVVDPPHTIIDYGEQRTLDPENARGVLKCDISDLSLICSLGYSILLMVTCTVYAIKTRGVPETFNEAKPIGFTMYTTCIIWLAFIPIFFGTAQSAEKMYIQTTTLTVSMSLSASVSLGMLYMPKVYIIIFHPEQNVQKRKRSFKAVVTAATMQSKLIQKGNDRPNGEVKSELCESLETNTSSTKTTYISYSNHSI
`CN(C)c1ccnc2sc3c(=O)n(-c4ccccc4)cnc3c12` came in with a z-score of 0.0117.

The compound `CC(C)(C)OC(=O)NC(CCNC=C1C(=O)OC(C)(C)OC1=O)C(=O)O` (stereo unspecified) showed a z-score of 0.0319.

As to `COc1ccccc1C(c1nnnn1CC1CCCO1)N1CCC(C(N)=O)CC1` (stereo unspecified), the z-score amounted to 0.0288.

As to `CCn1c(SCC(=O)Nc2ccccc2N2CCCCC2)nc2c1c(=O)n(C)c(=O)n2C`, the z-score was -0.541.

For the compound `O=C(Nc1nc2cc(Cl)ccc2s1)C1CCCN(S(=O)(=O)c2cccc3cccnc23)C1` (stereo unspecified), the z-score stood at 0.315.

Regarding `COC(=O)C(CCSC)NC(=O)CNS(=O)(=O)c1ccc(F)cc1` (stereo unspecified), the z-score came to 0.00793.

Compound `CCOC(=O)c1cc(C(=O)c2cc(F)ccc2O)coc1=N` registered a z-score of -0.462.

Turning to `CCN1CCN(CCC(=O)Nc2cccc(OC)c2)CC1`, the z-score came out at 0.0688.

The compound `O=C(CCn1nc(-c2ccc(Cl)cc2)ccc1=O)N1CCOCC1` displayed a z-score of 0.172.

For `c1nc(NCC2CCCO2)c2[nH]cnc2n1` (stereo unspecified), the z-score is 0.26.

Take `Cc1cc(C)n(-c2nc(-n3nc(C)cc3C)c3c4c(sc3n2)COC(C)(C)C4)n1`: the z-score came to 0.613.

`Clc1ccc(-c2nnc(SCc3ccon3)o2)c(Cl)c1` registered a z-score of 0.0474.

As for `O=C1/C(=C/c2ccc(F)cc2)SC(=S)N1Nc1ncc(C(F)(F)F)cc1Cl`, the z-score amounted to 0.426.

The compound `CCc1ccc(NC(=O)c2cnn3ccccc23)cc1` yielded a z-score of 0.194.

On to `CCOc1ccc(N(CC(=O)OC)S(=O)(=O)c2ccc3c(c2)n(C)c(=O)c(=O)n3C)cc1`, for which the z-score was -0.45.

In turn, `O=S(=O)(c1cccc(-c2nc3n(n2)Cc2ccccc2-3)c1)N1CCCCC1` returned a z-score of -0.199.

Compound `Cc1ccc(N(CC(=O)N2CCc3ccccc32)C2=NC(=O)CS2)cc1` registered a z-score of 0.254.

As to `Cc1ccc(-c2noc(CCC(=O)NCc3ccco3)n2)cc1`, the z-score was 0.23.

The compound `COC(=O)c1ccc(COc2ccccc2/C=C(\C#N)C(=O)Nc2ccc(C)cc2C)cc1` had a z-score of -0.285.

On to `COc1ccc(CNc2nc3nc(-c4ccccc4)cc(=O)n3[nH]2)cc1OC`, for which the z-score is -0.647.

The compound `COc1ccccc1-c1cc(C2CC2)nc(N)c1C#N` displayed a z-score of -0.0758.

Regarding `COc1ccc(/C=C2\SC(=O)N(CCC(=O)Nc3ccc(S(=O)(=O)Nc4nccs4)cc3)C2=O)cc1`, the z-score was -0.0479.

In turn, `CSc1nc2ccc(NS(=O)(=O)c3cccc(Cl)c3Cl)cc2s1` displayed a z-score of -0.391.

Consider `O=C(CN1CCN(c2ncc(C(F)(F)F)cc2Cl)CC1)N1CCN(c2ncc(C(F)(F)F)cc2Cl)CC1`, for which the z-score was -0.146.

Take `Cc1ccc(S(=O)(=O)N/N=C\c2cc([N+](=O)[O-])ccc2Cl)cc1`: the z-score is -0.0645.

For the compound `CCCNC(=O)c1cc2c3ccccc3n(C)c2s1`, the z-score was -0.375.

`CN=c1sc2ccccc2n1CC(O)COCc1ccco1` (stereo unspecified) displayed a z-score of -0.223.

Regarding `Cc1ccc(C(=O)OCC(=O)N2CCc3ccccc32)cc1`, the z-score is -0.119.

For `N#C/C(=C\c1cccc(NC(=O)c2ccccc2Cl)c1)C(=O)NCCc1ccccc1`, the z-score was -0.167.

The compound `CCCCCn1c(N(C)Cc2ccccc2)nc2c1c(=O)[nH]c(=O)n2C` displayed a z-score of 0.428.

Regarding `CN(C)c1ccc(CNC(=O)C2CCN(S(=O)(=O)c3ccc4c(c3)CCC(=O)N4)CC2)cc1`, the z-score was -0.357.

For the compound `CCc1nc(NCCN2CCOCC2)c2oc3ccccc3c2n1`, the z-score came out at 0.0575.

On to `C=CCc1cccc(/C=C/c2cc(=O)c3ccccc3[nH]2)c1O`, for which the z-score was -0.186.

In the case of `O=C(N/N=C/c1cc([N+](=O)[O-])ccc1O)C1CCCCC1`, the z-score was -0.174.

Compound `CCOC(=O)C1=C(CN2c3ccccc3CC2C)NC(=O)NC1c1ccccc1` (stereo unspecified) had a z-score of 0.11.

With `COCc1cc(C)nc(SCC(=O)Nc2cc3c(cc2C#N)OCO3)c1C#N`, the z-score was 0.982.

Consider `CC(C)C(=O)Nc1cccc(C(=O)OCC(=O)c2ccc(Cl)cc2Cl)c1`, for which the z-score was -0.198.

With `COc1ccc2c(c1)c(C(=O)N/N=C/c1ccc(OC)c(OC)c1)c(C)n2C`, the z-score is 0.0746.

On to `COc1ccc(-c2nc(N)ncc2-c2csc(C)n2)c(O)c1`, for which the z-score was -0.298.

The compound `O=C(CSc1nc2ccccc2o1)NC(=O)NCc1ccco1` yielded a z-score of 0.217.

In turn, `C=CCn1c(SCn2nnc3ccccc3c2=O)nc2scc(-c3cccs3)c2c1=O` returned a z-score of 0.0506.

In turn, `CC(=O)c1ccc(NC(=O)CN2C(=O)/C(=C/C(C)=C/c3ccccc3)SC2=S)cc1` came in with a z-score of -0.0841.

`C=CCOc1c(Br)cc(CNc2ccc(NC(=O)CCC)cc2)cc1OCC` gave a z-score of 0.0144.

Compound `Cc1cccc(N2CCN(c3nnnn3-c3ccccc3)CC2C)c1` (stereo unspecified) showed a z-score of -0.672.

For the compound `Cc1ccc(S(=O)(=O)N(C)c2cc(S(=O)(=O)Nc3ccncc3)c(C)cc2C)cc1`, the z-score was -0.123.

With `O=c1[nH]c(CN2CCN(C/C=C/c3ccccc3)CC2)nc2ccccc12`, the z-score is -0.00682.

Consider `CCn1nc(NC(=O)c2ccncc2)c2cc3cc(C)ccc3nc21`, for which the z-score was -0.348.

Regarding `Cc1cccc(C(=O)NNC(=O)c2ccccc2)c1`, the z-score was -0.0133.

`COc1cccc(-c2cc(C(=O)NC3CCCC3)no2)c1`: the z-score was active: 5.04.

For `COc1ccc(C(=O)NC2CCN(S(=O)(=O)Cc3ccccc3)CC2)c(OC)c1`, the z-score was -0.901.

On to `CS(=O)c1ccccc1COC(=O)Nc1cccc(Cl)c1` (stereo unspecified), for which the z-score worked out at 0.588.

`CC(=O)CSc1nnc(-c2ccc(S(=O)(=O)N3CCC(C)CC3)cc2)o1` registered a z-score of -0.043.

`CCOc1cc2c(cc1OCC)C(C(=O)O)C(c1cc(OC)c(OC)c(OC)c1)N(C)C2=O` (stereo unspecified) showed a z-score of -0.0232.

As for `COc1cccc(C2C(C(=O)Nc3nc4ccccc4s3)=C(C)NC3=C2C(=O)CC(C)(C)C3)c1OC` (stereo unspecified), the z-score was -0.465.

In turn, `COc1ccc(CNC(=O)c2c(O)c3cccc4c3n(c2=O)CCC4)cc1` came in with a z-score of -0.554.

On to `CCC1Sc2ccccc2N(CC(=O)NCCC2=CCCCC2)C1=O` (stereo unspecified), for which the z-score was -0.0914.

`CCCn1c(N2CCN(CC(=O)NCc3cccs3)CC2)nc2ccccc21`: the z-score is -0.152.

Turning to `Cc1ccc(-c2cn3c(=O)cc(C)[nH]c3n2)cc1`, the z-score was found to be 0.529.

`CCN(CC)CC(=O)Nc1ccc2c(c1)N(C(=O)CN(CC)CC)c1ccccc1CC2` gave a z-score of -0.342.

`O=C(CSc1ncnc2c1cnn2-c1ccc(Cl)cc1)NCc1ccc2c(c1)OCO2`: the z-score was active: 3.12.

In turn, `COc1ccc(-n2ncc3c(N4CCN(c5cc(C)ccc5C)CC4)ncnc32)cc1` had a z-score of -0.284.

`Cc1ccc(C)c(NC(=O)CSc2nnc(-c3ccncc3)n2N)c1` gave a z-score of -0.406.

`O=C(NCCc1ccccc1)C1CCCN1C(=O)NCc1ccccc1` (stereo unspecified) displayed a z-score of -0.304.

Compound `O=C(C1=C[C@@H]2[C@H]3C(=O)N(c4ccccc4)C(=O)[C@H]3[C@@H](C(=O)c3ccc(Cl)cc3)N2C=C1)c1ccccc1` displayed a z-score of -0.0992.

The compound `CC(Cn1cnc2ccccc21)C(=O)O` (stereo unspecified) displayed a z-score of 0.193.

In turn, `Cc1ccc(NC(=O)c2cc3c(s2)CCCC3)cc1S(=O)(=O)Nc1ccccc1Cl` yielded a z-score of -0.228.
